Test results as given in publication PMC9317594.
Results are given in words; binding and its absence hold for the method and conditions named. In cells and extracts the contact can be indirect. Some entries that bind do so weakly or less than the wild type.

Protein sequences, listed by entry. Tags and fused reporters are not part of them. Lines headed by an entry give the natural chain unless they say otherwise; changes in a name come on top. Chains listed by the source or under a name are the forms on record and can include a tag or linker. Residues count along the entry.
UniProt Q8R429: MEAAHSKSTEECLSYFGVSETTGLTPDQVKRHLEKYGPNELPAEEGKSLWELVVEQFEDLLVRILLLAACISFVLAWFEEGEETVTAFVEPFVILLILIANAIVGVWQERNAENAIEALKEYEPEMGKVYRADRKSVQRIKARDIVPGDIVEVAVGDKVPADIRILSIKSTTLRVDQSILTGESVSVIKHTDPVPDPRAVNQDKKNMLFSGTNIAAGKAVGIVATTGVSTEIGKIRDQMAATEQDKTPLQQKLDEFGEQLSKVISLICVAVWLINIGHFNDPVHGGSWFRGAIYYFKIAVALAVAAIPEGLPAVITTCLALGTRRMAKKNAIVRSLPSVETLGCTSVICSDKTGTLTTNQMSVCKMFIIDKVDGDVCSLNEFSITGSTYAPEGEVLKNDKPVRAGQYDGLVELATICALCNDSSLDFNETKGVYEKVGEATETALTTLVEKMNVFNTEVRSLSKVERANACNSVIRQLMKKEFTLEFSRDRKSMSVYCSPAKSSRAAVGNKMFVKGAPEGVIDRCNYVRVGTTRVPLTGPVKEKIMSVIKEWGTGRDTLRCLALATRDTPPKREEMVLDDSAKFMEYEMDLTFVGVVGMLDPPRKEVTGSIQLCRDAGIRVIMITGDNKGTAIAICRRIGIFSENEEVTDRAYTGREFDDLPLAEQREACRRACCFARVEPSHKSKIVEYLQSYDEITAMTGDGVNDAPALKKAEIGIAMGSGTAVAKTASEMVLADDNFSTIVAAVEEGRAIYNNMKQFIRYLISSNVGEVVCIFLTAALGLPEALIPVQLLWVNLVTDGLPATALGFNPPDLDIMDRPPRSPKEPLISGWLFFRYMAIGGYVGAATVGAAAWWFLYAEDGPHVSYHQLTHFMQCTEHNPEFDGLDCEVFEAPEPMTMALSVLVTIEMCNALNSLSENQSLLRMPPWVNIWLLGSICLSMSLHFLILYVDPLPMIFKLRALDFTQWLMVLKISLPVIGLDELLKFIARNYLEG
SERCA2A (mouse) (O55143-2, form named): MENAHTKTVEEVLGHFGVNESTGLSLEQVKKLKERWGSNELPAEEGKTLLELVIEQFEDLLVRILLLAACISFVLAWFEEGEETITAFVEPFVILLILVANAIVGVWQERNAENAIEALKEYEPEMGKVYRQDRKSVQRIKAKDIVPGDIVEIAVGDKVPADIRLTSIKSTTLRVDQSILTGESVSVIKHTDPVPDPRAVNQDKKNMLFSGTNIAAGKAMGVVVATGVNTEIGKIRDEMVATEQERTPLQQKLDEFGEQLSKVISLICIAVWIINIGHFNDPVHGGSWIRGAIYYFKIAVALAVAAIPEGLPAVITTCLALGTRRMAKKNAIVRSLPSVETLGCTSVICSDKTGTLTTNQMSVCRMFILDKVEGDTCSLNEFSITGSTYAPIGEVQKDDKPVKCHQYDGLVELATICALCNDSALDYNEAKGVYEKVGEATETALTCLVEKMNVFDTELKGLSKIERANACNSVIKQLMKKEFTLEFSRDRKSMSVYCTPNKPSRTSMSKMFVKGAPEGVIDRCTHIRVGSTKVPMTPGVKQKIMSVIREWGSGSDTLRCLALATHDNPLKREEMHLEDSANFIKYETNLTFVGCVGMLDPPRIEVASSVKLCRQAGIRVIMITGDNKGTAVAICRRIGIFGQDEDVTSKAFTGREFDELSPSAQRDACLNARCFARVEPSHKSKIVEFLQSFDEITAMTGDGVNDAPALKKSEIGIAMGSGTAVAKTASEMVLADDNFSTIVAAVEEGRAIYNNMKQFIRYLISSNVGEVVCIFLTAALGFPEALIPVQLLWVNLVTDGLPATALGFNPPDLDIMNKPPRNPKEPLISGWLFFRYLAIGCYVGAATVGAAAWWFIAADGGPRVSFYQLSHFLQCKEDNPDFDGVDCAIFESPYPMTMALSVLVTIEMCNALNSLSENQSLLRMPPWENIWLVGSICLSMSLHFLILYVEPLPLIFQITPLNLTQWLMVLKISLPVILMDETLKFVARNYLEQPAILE
SERCA3 (mouse) (Q64518-1, form named): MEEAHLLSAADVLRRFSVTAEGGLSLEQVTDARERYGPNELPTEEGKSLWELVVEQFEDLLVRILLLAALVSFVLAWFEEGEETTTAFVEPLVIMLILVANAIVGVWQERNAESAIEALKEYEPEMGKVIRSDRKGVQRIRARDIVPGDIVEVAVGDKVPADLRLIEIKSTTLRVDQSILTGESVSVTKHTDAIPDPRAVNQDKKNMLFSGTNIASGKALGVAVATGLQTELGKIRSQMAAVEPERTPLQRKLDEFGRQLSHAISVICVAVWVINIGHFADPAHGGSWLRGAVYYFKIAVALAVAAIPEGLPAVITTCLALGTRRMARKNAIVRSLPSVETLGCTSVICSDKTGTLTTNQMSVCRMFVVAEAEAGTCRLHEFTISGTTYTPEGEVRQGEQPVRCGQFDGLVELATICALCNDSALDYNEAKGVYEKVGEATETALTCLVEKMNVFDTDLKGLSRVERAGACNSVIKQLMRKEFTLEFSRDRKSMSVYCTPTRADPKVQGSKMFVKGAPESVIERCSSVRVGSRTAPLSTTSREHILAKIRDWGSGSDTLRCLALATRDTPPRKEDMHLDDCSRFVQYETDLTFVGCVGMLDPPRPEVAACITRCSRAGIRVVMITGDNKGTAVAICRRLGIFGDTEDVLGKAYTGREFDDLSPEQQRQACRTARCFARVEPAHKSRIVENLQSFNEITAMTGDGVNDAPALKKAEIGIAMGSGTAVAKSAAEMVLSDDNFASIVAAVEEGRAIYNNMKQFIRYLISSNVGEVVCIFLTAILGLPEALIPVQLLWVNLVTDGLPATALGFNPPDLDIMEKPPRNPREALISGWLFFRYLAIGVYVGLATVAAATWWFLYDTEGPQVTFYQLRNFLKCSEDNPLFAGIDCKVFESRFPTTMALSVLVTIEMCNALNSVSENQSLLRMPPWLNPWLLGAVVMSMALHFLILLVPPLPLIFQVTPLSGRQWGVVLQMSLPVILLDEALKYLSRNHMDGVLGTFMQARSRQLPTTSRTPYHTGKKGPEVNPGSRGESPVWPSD
UniProt P70414, residues 33-970: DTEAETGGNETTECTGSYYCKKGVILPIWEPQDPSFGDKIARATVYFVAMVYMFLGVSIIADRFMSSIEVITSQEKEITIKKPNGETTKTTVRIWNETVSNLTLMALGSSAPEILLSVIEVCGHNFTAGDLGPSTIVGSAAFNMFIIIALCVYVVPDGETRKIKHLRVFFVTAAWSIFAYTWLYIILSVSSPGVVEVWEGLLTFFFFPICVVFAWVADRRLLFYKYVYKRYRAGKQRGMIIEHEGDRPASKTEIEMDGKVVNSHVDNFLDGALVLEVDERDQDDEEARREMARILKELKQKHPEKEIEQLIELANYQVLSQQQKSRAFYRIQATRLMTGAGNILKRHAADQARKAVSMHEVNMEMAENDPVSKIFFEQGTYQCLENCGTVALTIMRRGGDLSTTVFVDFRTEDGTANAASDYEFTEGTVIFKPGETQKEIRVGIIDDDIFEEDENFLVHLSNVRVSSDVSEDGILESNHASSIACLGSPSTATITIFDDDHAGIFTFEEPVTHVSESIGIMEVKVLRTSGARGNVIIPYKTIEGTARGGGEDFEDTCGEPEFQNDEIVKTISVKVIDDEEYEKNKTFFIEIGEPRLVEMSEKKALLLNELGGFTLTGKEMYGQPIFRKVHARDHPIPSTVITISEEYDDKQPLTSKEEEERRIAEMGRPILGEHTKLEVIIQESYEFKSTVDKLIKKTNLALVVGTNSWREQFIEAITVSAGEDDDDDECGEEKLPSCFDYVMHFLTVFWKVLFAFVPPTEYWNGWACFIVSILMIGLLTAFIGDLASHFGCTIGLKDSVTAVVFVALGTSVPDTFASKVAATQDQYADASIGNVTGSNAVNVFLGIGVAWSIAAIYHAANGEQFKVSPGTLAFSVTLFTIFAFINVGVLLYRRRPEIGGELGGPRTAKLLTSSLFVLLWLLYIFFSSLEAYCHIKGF

Target: T1, mitochondrial Na+-Ca2+ exchanger NCLX (mouse) (mouse) (UniProt Q925Q3)
T1 sequence: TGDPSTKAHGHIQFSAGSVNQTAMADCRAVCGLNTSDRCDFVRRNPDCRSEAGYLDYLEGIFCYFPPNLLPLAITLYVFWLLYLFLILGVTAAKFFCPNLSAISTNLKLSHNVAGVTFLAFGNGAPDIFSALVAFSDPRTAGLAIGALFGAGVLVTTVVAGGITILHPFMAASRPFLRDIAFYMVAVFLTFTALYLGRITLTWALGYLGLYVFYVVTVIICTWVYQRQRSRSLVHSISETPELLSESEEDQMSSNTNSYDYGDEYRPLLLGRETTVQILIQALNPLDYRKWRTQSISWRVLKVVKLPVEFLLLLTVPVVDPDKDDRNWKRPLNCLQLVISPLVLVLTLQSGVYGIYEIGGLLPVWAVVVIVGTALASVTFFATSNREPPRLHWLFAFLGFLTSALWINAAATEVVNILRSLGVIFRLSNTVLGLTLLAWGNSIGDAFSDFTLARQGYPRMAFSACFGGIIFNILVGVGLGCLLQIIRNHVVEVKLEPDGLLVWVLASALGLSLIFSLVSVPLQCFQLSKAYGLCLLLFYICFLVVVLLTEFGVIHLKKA
Experiment: split reporter; mKGN- and mKGC-fusion proteins (CoralHue Fluo-chase Kit, MBL) co-transfected into HEK293 cells, eight pairs of tag orientations (i-viii) for each combination; confocal images two days after transfection, fluorescence intensity/area against background cells

Substance | binding
SERCA1 (mouse) (from UniProt Q8R429 1-994) | binds
SERCA2A (mouse) (from UniProt O55143-2 1-998) | binds
SERCA2B (mouse) (from UniProt O55143-1 1-1044) | binds
SERCA3 (mouse) (from UniProt Q64518-1 1-1038) | binds
plasma membrane Na+-Ca2+ exchanger (NCX) 1 (mouse) (from UniProt P70414 33-970) | no binding
